Assay results published in patent US8415399B2, “Retrovirus-infection inhibitor” (Nagasaki University, priority 2006, dated 2013).

Legend:
Assay in all cases: Cytotoxicity test: cell count, cell proliferation
HeLa/CD4 cell = type: cell-based; conditions: Homo sapiens, 48 h, 2 days culture, read-out: concentration to suppress cell proliferation by 50%
NP2/CD4/X4 cell = conditions: Homo sapiens, 48 h, read-out: concentration to suppress cell proliferation by 50%
TE671/CD4 cell = type: cell-based; conditions: Homo sapiens, TE-671, 48 h, 2 days culture, read-out: concentration to suppress cell proliferation by 50%

CC(C)=CCC/C(C)=C/CC/C(C)=C/CC/C(C)=C/C(=O)O [GGA, geranylgeranoic acid]
IC50 (HeLa/CD4 cell): 20 µM
IC50 (NP2/CD4/X4 cell): 20 µM
IC50 (TE671/CD4 cell): 25 µM
